Measurements taken from the RNAGym collection of RNA variant scans (doi:10.1073/pnas.2313332121).
Variants at the background level are over-represented here.

B1: TPR 5TU (parent)
chain: GGAUCUUCUCGAUCUAACAAAAAAGACAAAUCUGCCACAAAGCUUGAGAGCAUCUUCGGAUGCAGAGGCGGCAGCCUUCGGUGGCGCGAUAGCGCCAACGUUCUCAACUAUGACACGCAAAACGCGUGCUCCGUUGAAUGGAGUUUAUCAUG

Variants of: B1
Assay: polymerase ribozyme fitness, log enrichment relative to wild type (log ratio); higher = more active; in vitro selection for triplet polymerase activity
In short: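 Fitness measures genotype enrichment against wild-type enrichment on a logarithmic scale, with inverse-variance-weighted averaging of replicates. The logarithm is base 2, and genotypes were kept only with ≥10 input reads and ≥1 read per output in Illumina sequencing. The sequenced libraries came from one triplicate in vitro selection round, including frozen incubation at −7 °C, of PCR-built, transcribed mutant libraries of each subunit of a heterodimeric triplet polymerase ribozyme.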

Variant | polymerase ribozyme fitness (log ratio)
A49G G59U C93A C125G G136C U144A | ≤ -4.2
A49G G68C G86A C116A | ≤ -4.2
A49G G68U C76A U102G A107C C149G | ≤ -4.2
A49G G70A G140U | ≤ -4.2
A49G G71A C93G | ≤ -4.2
A49G G81C A91G A98U | -2.95
A49G G81U G92A G141C | ≤ -4.2
A49G G84U U145G | -3.09
A49G G92C A115U | -3.24
A49G G92U | 0.21
A49G G100A C105A G140A | ≤ -4.2
A49G G140A | -3.77
A49G U53A G83A G94U | ≤ -4.2
A49G U53G C63A C79U C96A U104C C114U A137C | ≤ -4.2
A49G U55A A73G | -3.1
A49G U55A G71A C96G A137U | ≤ -4.2
A49G U55G C57U A60G C75G C76U U90A U102C U134G G140C | ≤ -4.2
A49G U61A A64C G65U G67A A73C C96G U134C | ≤ -4.2
A49G U61A A64G C76A G141C | ≤ -4.2
A49G U61A G80C A98G G141A | ≤ -4.2
A49G U139A | -4.08

Variant | polymerase ribozyme fitness (log ratio)
A49U A60C | -3.47
A49U A60U G67A C87G A147U | ≤ -4.2
A49U A66U G84U A137U | ≤ -4.2
A49U A73G G81C C85U | -2.64
A49U A91U A97C U102A C105G U146C | ≤ -4.2
A49U A121U C149G | ≤ -4.2
A49U C51U U55A G71A U82A G83C U102G A120U G136A U148A | ≤ -4.2
A49U C54A G94U C95G A137U | ≤ -4.2
A49U C63A U144A U151C | ≤ -4.2
A49U C63U C93U C105G U145G | ≤ -4.2
A49U C69A G84U C96A U104A C105G A107G G143A | ≤ -4.2
A49U C75G C93U U101G | ≤ -4.2
A49U C75U G81A C96U U109C | ≤ -4.2
A49U C85G C103G C118G C125G | ≤ -4.2
A49U C87A C95U | ≤ -4.2
A49U C131A U135G G143A | ≤ -4.2
A49U G50A A73G C76G A89G C129G | ≤ -4.2
A49U G50A G84A C95G U146C | -1.2
A49U G50C G65C A97U U101G C129G G143U | ≤ -4.2
A49U G50C G71C G92C C103A G117C | ≤ -4.2
A49U G50U C69U C72A C96A C103A C116G | ≤ -4.2

Variant | polymerase ribozyme fitness (log ratio)
A49U G62A U90C A110G U134A A142C U148A | ≤ -4.2
A49U G65A G80C | ≤ -4.2
A49U G67C C72U G92U C99G | ≤ -4.2
A49U G67U C75U A91U G92A A98G A106C G143U | ≤ -4.2
A49U G68C G84A C95G A97U G100U A107U C108G U148G | ≤ -4.2
A49U G94C G152C | ≤ -4.2
A49U U53A A64G G84U U90C C96A A97G G124U G140A | ≤ -4.2
A49U U53A G92U C116A | -1.33
A49U U56A C99G A147G | ≤ -4.2
A49U U56G C85U G86U U102C | ≤ -4.2
A49U U61A C63G C76A C96A G141A U146C | ≤ -4.2
A49U U61G C69G C87U G88A C123U | ≤ -4.2
A49U U77C A122U | ≤ -4.2
A49U U90A A115G | ≤ -4.2
A49U U151C | ≤ -4.2
G50A A52C C95A U102G C105A U139C | ≤ -4.2
G50A A52C U53A C96A G141U | ≤ -4.2
G50A A52U C85G U134C | ≤ -4.2
G50A A60G G86A C103U A138G | ≤ -4.2
G50A A97G A138C | -4.01
G50A A107U | -4.13

Variant | polymerase ribozyme fitness (log ratio)
G50A A150U | -1.41
G50A C51U G74C U82C G140A U146G | ≤ -4.2
G50A C54A A89C C93A U101G A107G G126U A137U U148A | ≤ -4.2
G50A C54A G59A C72U C103A A119U | ≤ -4.2
G50A C54U C85U C93U G94U G117A | -3.95
G50A C54U U55A A73G | ≤ -4.2
G50A C57A C87G C93G A110U A121U | ≤ -4.2
G50A C57A C99A | -2.67
G50A C57A G67C C85G G88A A138U | ≤ -4.2
G50A C63A G67A G80A A142G | ≤ -4.2
G50A C69A C76G | ≤ -4.2
G50A C69U A121U A137C | ≤ -4.2
G50A C76G C93G U102A U135G A150G | ≤ -4.2
G50A C85U C96U C105U G141A | -1.94
G50A C87G G124A A142U C149A | ≤ -4.2
G50A C93A C116A A122G C129G | ≤ -4.2
G50A C93G C96U | ≤ -4.2
G50A C93G U148C | ≤ -4.2
G50A C96U | -1.47
G50A C125U | -1.35
